The CheMixHub viscosity set
The source gives many values for each of these; only a part stands here.

Test: xn = mol fraction of the nth substance listed

C1COCCO1 + O
Conditions | viscosity [mPa·s]
298.15 K, 101 kPa, x2 = 0.188 | 1.26
298.15 K, 101 kPa, x2 = 0.342 | 1.41
298.15 K, 101 kPa, x2 = 0.35 | 1.442
298.15 K, 101 kPa, x2 = 0.5443 | 1.7
298.15 K, 101 kPa, x2 = 0.55 | 1.786
298.15 K, 101 kPa, x2 = 0.68 | 1.976
298.15 K, 101 kPa, x2 = 0.72 | 2.023
298.15 K, 101 kPa, x2 = 0.77 | 1.987
298.15 K, 101 kPa, x2 = 0.8 | 1.958
298.15 K, 101 kPa, x2 = 0.83 | 1.914
298.15 K, 101 kPa, x2 = 0.86 | 1.835
298.15 K, 101 kPa, x2 = 0.88 | 1.697
298.15 K, 101 kPa, x2 = 0.92 | 1.518
298.15 K, 101 kPa, x2 = 0.95 | 1.297
298.15 K, 101 kPa, x2 = 0.98 | 1.095
298.15 K, 101.3 kPa, x1 = 0.0486 | 1.3
298.15 K, 101.3 kPa, x1 = 0.1199 | 1.74
298.15 K, 101.3 kPa, x1 = 0.2347 | 1.98
298.15 K, 101.3 kPa, x1 = 0.4498 | 1.73
298.15 K, 101.32 kPa, x1 = 0.02221 | 1.074
298.15 K, 101.32 kPa, x1 = 0.04863 | 1.281
298.15 K, 101.32 kPa, x1 = 0.08057 | 1.504
298.15 K, 101.32 kPa, x1 = 0.12 | 1.709
298.15 K, 101.32 kPa, x1 = 0.1698 | 1.894
298.15 K, 101.32 kPa, x1 = 0.2347 | 1.989
298.15 K, 101.32 kPa, x1 = 0.2949 | 1.961
298.15 K, 101.32 kPa, x1 = 0.323 | 1.932
298.15 K, 101.32 kPa, x1 = 0.3802 | 1.854
298.15 K, 101.32 kPa, x1 = 0.4499 | 1.745
298.15 K, 101.32 kPa, x1 = 0.5367 | 1.623
298.15 K, 101.32 kPa, x1 = 0.6479 | 1.43
298.15 K, 101.32 kPa, x1 = 0.7953 | 1.298
298.15 K, 101.32 kPa, x1 = 0.8686 | 1.263
298.15 K, 101.32 kPa, x1 = 0.9529 | 1.207
301.15 K, 101.32 kPa, x1 = 0.02221 | 0.9889
301.15 K, 101.32 kPa, x1 = 0.04863 | 1.179
301.15 K, 101.32 kPa, x1 = 0.08057 | 1.368
301.15 K, 101.32 kPa, x1 = 0.12 | 1.551
301.15 K, 101.32 kPa, x1 = 0.1698 | 1.725
301.15 K, 101.32 kPa, x1 = 0.2347 | 1.836
301.15 K, 101.32 kPa, x1 = 0.2949 | 1.808
301.15 K, 101.32 kPa, x1 = 0.323 | 1.776
301.15 K, 101.32 kPa, x1 = 0.3802 | 1.715
301.15 K, 101.32 kPa, x1 = 0.4499 | 1.624
301.15 K, 101.32 kPa, x1 = 0.5367 | 1.525
301.15 K, 101.32 kPa, x1 = 0.6479 | 1.335
301.15 K, 101.32 kPa, x1 = 0.7953 | 1.199
301.15 K, 101.32 kPa, x1 = 0.8686 | 1.164
301.15 K, 101.32 kPa, x1 = 0.9529 | 1.13
302.15 K, 101 kPa, x1 = 0.00206 | 0.8373
302.15 K, 101 kPa, x1 = 0.00628 | 0.8685
302.15 K, 101 kPa, x1 = 0.01516 | 0.9277
302.15 K, 101 kPa, x1 = 0.03482 | 1.055
302.15 K, 101 kPa, x1 = 0.05303 | 1.177
302.15 K, 101 kPa, x1 = 0.07366 | 1.304
302.15 K, 101 kPa, x1 = 0.08413 | 1.375
302.15 K, 101 kPa, x1 = 0.1114 | 1.518
302.15 K, 101 kPa, x1 = 0.1433 | 1.641
302.15 K, 101 kPa, x1 = 0.1726 | 1.715
302.15 K, 101 kPa, x1 = 0.2065 | 1.762
302.15 K, 101 kPa, x1 = 0.2501 | 1.76
302.15 K, 101 kPa, x1 = 0.3029 | 1.753
302.15 K, 101 kPa, x1 = 0.356 | 1.705
302.15 K, 101 kPa, x1 = 0.4203 | 1.612
302.15 K, 101 kPa, x1 = 0.4996 | 1.505
302.15 K, 101 kPa, x1 = 0.5367 | 1.459
302.15 K, 101 kPa, x1 = 0.5999 | 1.385
302.15 K, 101 kPa, x1 = 0.6479 | 1.332
302.15 K, 101 kPa, x1 = 0.7309 | 1.256
302.15 K, 101 kPa, x1 = 0.7621 | 1.231
302.15 K, 101 kPa, x1 = 0.7953 | 1.207
302.15 K, 101 kPa, x1 = 0.8686 | 1.16
302.15 K, 101 kPa, x1 = 0.9092 | 1.138
302.15 K, 101 kPa, x1 = 0.976 | 1.108
302.15 K, 101 kPa, x2 = 0.0145 | 1.104
303.15 K, 101.33 kPa, x1 = 0.0999 | 1.437
303.15 K, 101.33 kPa, x1 = 0.1999 | 1.724
303.15 K, 101.33 kPa, x1 = 0.2998 | 1.726
303.15 K, 101.33 kPa, x1 = 0.3982 | 1.611
303.15 K, 101.33 kPa, x1 = 0.4981 | 1.47
303.15 K, 101.33 kPa, x1 = 0.5981 | 1.341
303.15 K, 101.33 kPa, x1 = 0.6997 | 1.238
303.15 K, 101.33 kPa, x1 = 0.7996 | 1.159
303.15 K, 101.33 kPa, x1 = 0.9 | 1.107
304.15 K, 101.32 kPa, x1 = 0.02221 | 0.9095
304.15 K, 101.32 kPa, x1 = 0.04863 | 1.079
304.15 K, 101.32 kPa, x1 = 0.08057 | 1.253
304.15 K, 101.32 kPa, x1 = 0.12 | 1.424
304.15 K, 101.32 kPa, x1 = 0.1698 | 1.577
304.15 K, 101.32 kPa, x1 = 0.2347 | 1.696
304.15 K, 101.32 kPa, x1 = 0.2949 | 1.669
304.15 K, 101.32 kPa, x1 = 0.323 | 1.635
304.15 K, 101.32 kPa, x1 = 0.3802 | 1.581
304.15 K, 101.32 kPa, x1 = 0.4499 | 1.505
304.15 K, 101.32 kPa, x1 = 0.5367 | 1.422
304.15 K, 101.32 kPa, x1 = 0.6479 | 1.243
304.15 K, 101.32 kPa, x1 = 0.7953 | 1.121
304.15 K, 101.32 kPa, x1 = 0.8686 | 1.082
304.15 K, 101.32 kPa, x1 = 0.9529 | 1.055
306.15 K, 101 kPa, x1 = 0.00206 | 0.769
306.15 K, 101 kPa, x1 = 0.00628 | 0.7999
306.15 K, 101 kPa, x1 = 0.01516 | 0.8554
306.15 K, 101 kPa, x1 = 0.03482 | 0.9612
306.15 K, 101 kPa, x1 = 0.05303 | 1.07
306.15 K, 101 kPa, x1 = 0.07366 | 1.189
306.15 K, 101 kPa, x1 = 0.08413 | 1.247
